# In the supplement of paper PMC8728848:
# The other results are listed elsewhere or left out.
# B1: Gal 9 (Homo sapiens), O00182 (protein)
# chain: MAFSGSQAPYLSPAVPFSGTIQGGLQDGLQITVNGTVLSSSGTRFAVNFQTGFSGNDIAFHFNPRFEDGGYVVCNTRQNGSWGPEERKTHMPFQKGMPFDLCFLVQSSDFKVMVNGILFVQYFHRVPFHRVDTISVNGSVQLSYISFQNPRTVPVQPAFSTVPFSQPVCFPPRPRGRRQKPPGVWPANPAPITQTVIHTVQSAPGQMFSTPAIPPMMYPHPAYPMPFITTILGGLYPSKSILLSGTVLPSAQRFHINLCSGNHIAFHLNPRFDENAVVRNTQIDNSWGSEERSLPRKMPFVRGQSFSVWILCEAHCLKVAVDGQHLFEYYHRLRNLPTINRLEVGGDIQLTHVQT
# Columns and labels:
# Assay in all cases: glycan array binding signal (z-score within array); higher = stronger binding
# Details in all cases: glycan notation: IUPAC condensed, linker removed
# [1] = target: Gal(a1-4)Gal(b1-4)GlcNAc(b1-2)Man(a1-3)[Gal(a1-4)Gal(b1-4)GlcNAc(b1-2)Man(a1-6)]Man(b1-4)GlcNAc(b1-4)GlcNAc
# Method in brief: (§1)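 Glycan array data came from 3228 arrays in the Consortium for Functional Glycomics database, and only arrays with an available protein sequence were kept. Glycan names were put into IUPAC-condensed notation, and columns mapping to the same glycan were averaged. The binding signal is a within-array Z-score, averaged across arrays of one protein sequence run at different concentrations or buffers and across linkers. A negative Z-score can be read as non-binding.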
# [2] = target: Gal(a1-4)Gal(b1-4)GlcNAc(b1-3)Gal(b1-4)Glc
# Method in brief: as §1
# [3] = target: Gal(a1-4)GlcNAc
# Method in brief: as §1
# [4] = target: Gal(a1-6)Glc
# Method in brief: as §1
# [5] = target: Gal(b1-2)Gal
# Method in brief: as §1
# [6] = target: Gal(b1-3)Gal
# Method in brief: as §1
# [7] = target: Gal(b1-3)Gal(b1-4)GlcNAc
# Method in brief: as §1
# [8] = target: Gal(b1-3)Gal(b1-4)GlcNAc(b1-2)Man(a1-3)[Gal(b1-3)Gal(b1-4)GlcNAc(b1-2)Man(a1-6)]Man(b1-4)GlcNAc(b1-4)GlcNAc
# Method in brief: as §1
# [9] = target: Gal(b1-3)GalNAc
# Method in brief: as §1
# [10] = target: Gal(b1-3)GalNAc(a1-3)[Fuc(a1-2)]Gal(b1-4)Glc
# Method in brief: as §1
# [11] = target: Gal(b1-3)GalNAc(a1-3)[Fuc(a1-2)]Gal(b1-4)GlcNAc
# Method in brief: as §1
# [12] = target: Gal(b1-3)GalNAc(b1-3)Gal
# Method in brief: as §1
# [13] = target: Gal(b1-3)GalNAc(b1-3)Gal(a1-4)Gal(b1-4)Glc
# Method in brief: as §1
# [14] = target: Gal(b1-3)GalNAc(b1-4)Gal(b1-4)Glc
# Method in brief: as §1
# [15] = target: Gal(b1-3)GalNAc(b1-4)[Neu5Ac(a2-3)]Gal(b1-4)Glc
# Method in brief: as §1
# [16] = target: Gal(b1-3)GlcNAc
# Method in brief: as §1
# [17] = target: Gal(b1-3)GlcNAc(a1-3)Gal(b1-4)GlcNAc
# Method in brief: as §1
# [18] = target: Gal(b1-3)GlcNAc(a1-6)Gal(b1-4)GlcNAc
# Method in brief: as §1
# [19] = target: Gal(b1-3)GlcNAc(b1-2)Man
# Method in brief: as §1
# [20] = target: Gal(b1-3)GlcNAc(b1-2)Man(a1-3)[Gal(b1-3)GlcNAc(b1-2)Man(a1-6)]Man(b1-4)GlcNAc(b1-4)GlcNAc
# Method in brief: as §1
# [21] = target: Gal(b1-3)GlcNAc(b1-2)Man(a1-3)[Gal(b1-3)GlcNAc(b1-2)Man(a1-6)]Man(b1-4)GlcNAc(b1-4)[Fuc(a1-6)]GlcNAc
# Method in brief: as §1
# [22] = target: Gal(b1-3)GlcNAc(b1-2)Man(a1-3)[GlcNAc(b1-4)][Gal(b1-3)GlcNAc(b1-2)Man(a1-6)]Man(b1-4)GlcNAc(b1-4)GlcNAc
# Method in brief: as §1
# [23] = target: Gal(b1-3)GlcNAc(b1-2)[Gal(b1-3)GlcNAc(b1-6)]Man(a1-6)[Gal(b1-3)GlcNAc(b1-2)Man(a1-3)]Man(b1-4)GlcNAc(b1-4)GlcNAc
# Method in brief: as §1
# [24] = target: Gal(b1-3)GlcNAc(b1-3)Gal(b1-3)GlcNAc
# Method in brief: as §1
# [25] = target: Gal(b1-3)GlcNAc(b1-3)Gal(b1-4)Glc
# Method in brief: as §1
# [26] = target: Gal(b1-3)GlcNAc(b1-3)Gal(b1-4)GlcNAc
# Method in brief: as §1
# [27] = target: Gal(b1-3)GlcNAc(b1-3)Gal(b1-4)GlcNAc(b1-2)Man(a1-3)[Gal(b1-3)GlcNAc(b1-3)Gal(b1-4)GlcNAc(b1-2)Man(a1-6)]Man(b1-4)GlcNAc(b1-4)GlcNAc
# Method in brief: as §1
# [28] = target: Gal(b1-3)GlcNAc(b1-3)Gal(b1-4)GlcNAc(b1-2)[Gal(b1-3)GlcNAc(b1-3)Gal(b1-4)GlcNAc(b1-6)]Man(a1-6)[Gal(b1-3)GlcNAc(b1-3)Gal(b1-4)GlcNAc(b1-2)Man(a1-3)]Man(b1-4)GlcNAc(b1-4)[Fuc(a1-6)]GlcNAc
# Method in brief: as §1
# [29] = target: Gal(b1-3)GlcNAc(b1-3)Gal(b1-4)GlcNAc(b1-3)Gal(b1-4)GlcNAc(b1-2)[Gal(b1-3)GlcNAc(b1-3)Gal(b1-4)GlcNAc(b1-3)Gal(b1-4)GlcNAc(b1-6)]Man(a1-6)[Gal(b1-3)GlcNAc(b1-3)Gal(b1-4)GlcNAc(b1-3)Gal(b1-4)GlcNAc(b1-2)Man(a1-3)]Man(b1-4)GlcNAc(b1-4)[Fuc(a1-6)]GlcNAc
# Method in brief: as §1
# [30] = target: Gal(b1-3)GlcNAc(b1-3)Gal(b1-4)GlcNAc(b1-6)[Gal(b1-3)GlcNAc(b1-3)]Gal(b1-4)Glc
# Method in brief: as §1
# [31] = target: Gal(b1-3)GlcNAc(b1-3)Gal(b1-4)[Fuc(a1-3)]GlcNAc(b1-6)[Gal(b1-3)GlcNAc(b1-3)]Gal(b1-4)Glc
# Method in brief: as §1
# [32] = target: Gal(b1-3)GlcNAc(b1-3)GalNAc
# Method in brief: as §1
# [33] = target: Gal(b1-3)GlcNAc(b1-6)Gal(b1-4)GlcNAc
# Method in brief: as §1
# [34] = target: Gal(b1-3)GlcNAc(b1-6)GalNAc
# Method in brief: as §1
# [35] = target: Gal(b1-3)GlcNAc(b1-6)[Gal(b1-3)]GalNAc
# Method in brief: as §1
# [36] = target: Gal(b1-3)GlcNAc6S
# Method in brief: as §1
# [37] = target: Gal(b1-3)[Fuc(a1-4)]GlcNAc
# Method in brief: as §1
binder,measurement,setting,value
B1,glycan array binding signal (z-score),[1],-0.256
same,glycan array binding signal (z-score),[2],0.18
same,glycan array binding signal (z-score),[3],-0.31
same,glycan array binding signal (z-score),[4],-0.316
same,glycan array binding signal (z-score),[5],-0.335
same,glycan array binding signal (z-score),[6],-0.321
same,glycan array binding signal (z-score),[7],1.07
same,glycan array binding signal (z-score),[8],6
same,glycan array binding signal (z-score),[9],-0.317
same,glycan array binding signal (z-score),[10],0.067
same,glycan array binding signal (z-score),[11],0.628
same,glycan array binding signal (z-score),[12],-0.292
same,glycan array binding signal (z-score),[13],-0.318
same,glycan array binding signal (z-score),[14],-0.284
same,glycan array binding signal (z-score),[15],-0.319
same,glycan array binding signal (z-score),[16],-0.243
same,glycan array binding signal (z-score),[17],-0.298
same,glycan array binding signal (z-score),[18],-0.294
same,glycan array binding signal (z-score),[19],-0.329
same,glycan array binding signal (z-score),[20],-0.038
same,glycan array binding signal (z-score),[21],-0.31
same,glycan array binding signal (z-score),[22],-0.265
same,glycan array binding signal (z-score),[23],0.612
same,glycan array binding signal (z-score),[24],0.306
same,glycan array binding signal (z-score),[25],0.925
same,glycan array binding signal (z-score),[26],1.04
same,glycan array binding signal (z-score),[27],4.53
same,glycan array binding signal (z-score),[28],0.552
same,glycan array binding signal (z-score),[29],1.17
same,glycan array binding signal (z-score),[30],3.08
same,glycan array binding signal (z-score),[31],1.98
same,glycan array binding signal (z-score),[32],-0.175
same,glycan array binding signal (z-score),[33],-0.199
same,glycan array binding signal (z-score),[34],-0.296
same,glycan array binding signal (z-score),[35],-0.32
same,glycan array binding signal (z-score),[36],-0.257
same,glycan array binding signal (z-score),[37],-0.322
